Experimental data published in PMC4752240.
Results are given in words; binding and its absence hold for the method and conditions named. Tags and fused reporters may be left off the sequences shown.

How the values were obtained:
Test in all cases: two-hybrid; bait fused with the GAL4 DNA binding domain (pDEST32), prey fused with the GAL4 activation domain (pDEST22); mating of yeast strains AH109 and Y187; growth on -His (weak interaction) or -His -Ade (strong interaction); three replicates
[1] = biological target: T1, APC10, yeast two-hybrid fusion (UniProt Q9ZPW2)
T1 sequence: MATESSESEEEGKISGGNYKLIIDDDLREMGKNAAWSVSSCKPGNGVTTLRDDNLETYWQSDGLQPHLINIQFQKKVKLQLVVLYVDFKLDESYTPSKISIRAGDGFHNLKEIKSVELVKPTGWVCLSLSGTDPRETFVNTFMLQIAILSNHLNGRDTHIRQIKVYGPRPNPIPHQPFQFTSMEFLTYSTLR

[2] = biological target: T2, APC5, yeast two-hybrid fusion (UniProt Q8H1U4)
T2 sequence: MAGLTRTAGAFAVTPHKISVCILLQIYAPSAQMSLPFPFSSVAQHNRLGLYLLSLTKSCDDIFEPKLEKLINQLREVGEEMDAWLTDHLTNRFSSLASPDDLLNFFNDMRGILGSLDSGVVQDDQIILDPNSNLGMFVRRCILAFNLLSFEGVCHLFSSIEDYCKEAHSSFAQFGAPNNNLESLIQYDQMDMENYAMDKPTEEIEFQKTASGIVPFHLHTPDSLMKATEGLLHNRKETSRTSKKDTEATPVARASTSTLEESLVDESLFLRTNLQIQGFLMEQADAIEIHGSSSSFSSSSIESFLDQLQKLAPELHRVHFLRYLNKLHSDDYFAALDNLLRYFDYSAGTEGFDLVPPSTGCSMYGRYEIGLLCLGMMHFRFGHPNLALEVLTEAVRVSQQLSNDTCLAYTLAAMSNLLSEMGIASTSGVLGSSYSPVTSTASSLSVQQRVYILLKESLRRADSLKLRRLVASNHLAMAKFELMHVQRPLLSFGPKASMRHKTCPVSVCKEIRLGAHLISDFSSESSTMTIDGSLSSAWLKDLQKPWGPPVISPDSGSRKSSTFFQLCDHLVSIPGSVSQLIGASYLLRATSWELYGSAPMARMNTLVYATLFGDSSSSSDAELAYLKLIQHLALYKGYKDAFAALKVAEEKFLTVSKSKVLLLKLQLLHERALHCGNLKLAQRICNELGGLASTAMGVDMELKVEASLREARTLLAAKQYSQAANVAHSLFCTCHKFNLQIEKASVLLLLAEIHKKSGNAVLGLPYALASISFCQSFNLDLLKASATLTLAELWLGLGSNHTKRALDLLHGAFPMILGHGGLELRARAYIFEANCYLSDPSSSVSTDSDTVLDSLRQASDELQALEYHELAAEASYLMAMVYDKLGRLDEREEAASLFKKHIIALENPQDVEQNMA

[3] = biological target: T3, APC6, yeast two-hybrid fusion (UniProt B3DNN5)
T3 sequence: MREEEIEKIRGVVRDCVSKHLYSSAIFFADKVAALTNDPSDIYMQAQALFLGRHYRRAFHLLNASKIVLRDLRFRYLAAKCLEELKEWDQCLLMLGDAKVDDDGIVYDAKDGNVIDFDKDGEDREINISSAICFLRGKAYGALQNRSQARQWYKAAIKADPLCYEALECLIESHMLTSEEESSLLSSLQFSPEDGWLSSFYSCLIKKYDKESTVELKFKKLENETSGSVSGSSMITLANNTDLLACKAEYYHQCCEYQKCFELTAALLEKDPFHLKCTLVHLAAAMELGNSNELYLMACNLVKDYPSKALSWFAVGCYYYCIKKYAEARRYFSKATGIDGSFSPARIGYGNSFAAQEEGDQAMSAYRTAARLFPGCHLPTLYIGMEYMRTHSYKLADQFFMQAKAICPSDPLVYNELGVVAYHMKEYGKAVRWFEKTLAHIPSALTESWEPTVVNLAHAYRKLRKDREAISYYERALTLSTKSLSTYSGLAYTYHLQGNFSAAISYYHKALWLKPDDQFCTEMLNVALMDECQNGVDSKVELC

[4] = biological target: T4, APC8, yeast two-hybrid fusion (UniProt Q9STS3)
T4 sequence: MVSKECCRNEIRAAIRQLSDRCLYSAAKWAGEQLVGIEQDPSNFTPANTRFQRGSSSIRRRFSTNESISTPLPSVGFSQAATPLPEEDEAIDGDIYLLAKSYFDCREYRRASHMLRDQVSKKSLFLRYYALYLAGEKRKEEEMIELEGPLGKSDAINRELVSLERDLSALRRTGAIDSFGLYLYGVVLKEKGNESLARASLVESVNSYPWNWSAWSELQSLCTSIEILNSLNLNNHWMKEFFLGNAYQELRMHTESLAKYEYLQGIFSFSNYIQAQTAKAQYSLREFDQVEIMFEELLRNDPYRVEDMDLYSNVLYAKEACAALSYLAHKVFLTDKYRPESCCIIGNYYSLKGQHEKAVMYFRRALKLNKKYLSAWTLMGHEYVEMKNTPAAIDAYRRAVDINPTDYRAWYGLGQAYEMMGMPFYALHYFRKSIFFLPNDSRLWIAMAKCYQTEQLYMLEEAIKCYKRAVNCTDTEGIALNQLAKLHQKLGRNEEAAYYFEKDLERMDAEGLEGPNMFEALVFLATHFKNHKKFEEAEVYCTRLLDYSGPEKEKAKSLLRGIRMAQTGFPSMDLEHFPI

Measured: binding

B1: TDM1 (THREE DIVISION MUTANT1), yeast two-hybrid fusion (protein, UniProt Q9SUC3 1-434)
chain: MCPCVERRAPPGVYYTPPPARTSDHVAAMPMTERRRPPYSCSSSSERRDPFHIVHKVPSGDSPYVRAKHAQLIDKDPNRAISLFWTAINAGDRVDSALKDMAVVMKQLGRSDEGIEAIKSFRYLCSFESQDSIDNLLLELYKKSGRIEEEAVLLEHKLQTLEQGMGFGGRVSRAKRVQGKHVIMTIEQEKARILGNLGWVHLQLHNYGIAEQHYRRALGLERDKNKLCNLAICLMRMSRIPEAKSLLDDVRDSPAESECGDEPFAKSYDRAVEMLAEIESKKPEADLSEKFYAGCSFVNRMKENIAPGTANKNYSDVSSSPASVRPNSAGLYTQPRRCRLFEEETRGAARKLLFGKPQPFGSEQMKILERGEEEPMKRKKLDQNMIQYLHEFVKDTADGPKSESKKSWADIAEEEEAEEEEEERLQGELKTAEM
no binding: all assays above
